From the supplement of paper PMC3334620
In all, about 33,000 sequences were measured (“E-score (-0.5 to 0.5)”: median about -0.012, highest 2% from about 0.29 on). Some of the results follow.

Biological target: T1, Ybr033w (UniProt P38073)
T1 sequence: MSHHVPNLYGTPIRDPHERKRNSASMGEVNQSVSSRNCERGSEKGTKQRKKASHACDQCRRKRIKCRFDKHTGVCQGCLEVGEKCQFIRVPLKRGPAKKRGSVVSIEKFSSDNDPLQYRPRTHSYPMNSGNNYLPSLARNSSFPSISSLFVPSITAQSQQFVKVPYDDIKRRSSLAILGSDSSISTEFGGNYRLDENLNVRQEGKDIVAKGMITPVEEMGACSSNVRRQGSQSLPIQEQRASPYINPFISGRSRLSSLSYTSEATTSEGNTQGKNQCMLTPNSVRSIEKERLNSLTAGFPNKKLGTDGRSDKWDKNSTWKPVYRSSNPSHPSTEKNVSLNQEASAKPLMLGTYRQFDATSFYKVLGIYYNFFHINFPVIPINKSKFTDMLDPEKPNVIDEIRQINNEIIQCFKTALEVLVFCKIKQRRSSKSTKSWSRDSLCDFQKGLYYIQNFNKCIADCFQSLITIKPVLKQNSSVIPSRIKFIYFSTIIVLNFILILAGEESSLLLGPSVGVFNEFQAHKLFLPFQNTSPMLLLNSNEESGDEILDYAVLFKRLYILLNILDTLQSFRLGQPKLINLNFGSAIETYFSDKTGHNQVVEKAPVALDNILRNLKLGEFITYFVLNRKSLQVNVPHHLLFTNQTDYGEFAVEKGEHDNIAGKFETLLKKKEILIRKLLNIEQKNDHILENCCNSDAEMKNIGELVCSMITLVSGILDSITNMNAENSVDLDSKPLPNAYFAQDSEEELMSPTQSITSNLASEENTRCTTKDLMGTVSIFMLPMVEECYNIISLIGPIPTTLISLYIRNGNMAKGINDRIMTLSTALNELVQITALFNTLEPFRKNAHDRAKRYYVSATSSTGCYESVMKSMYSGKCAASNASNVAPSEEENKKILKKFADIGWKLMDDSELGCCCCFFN
Experiment: PBM E-score (8-mer binding enrichment) (E-score (-0.5 to 0.5)); higher = stronger / more preferred TF binding; most listed sequences are background and not binding sites
Conditions: protein concentration: 200 nM; construct: GST-full length
Method: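 Universal 'all 10-mer' protein binding microarrays (Agilent AMADID 015681) probed with GST-tagged S. cerevisiae TFs (full-length or DBD) made by in vitro transcription/translation (PURExpress), about 100-200 nM. Bound TF was detected with fluorescent anti-GST. Each ungapped 8-mer (which stands for itself and its reverse complement) is scored by the PBM enrichment score (E-score), a modified Wilcoxon-Mann-Whitney statistic from -0.5 to +0.5, computed with the Universal PBM Analysis Suite. Scale: above 0.35 generally sequence-specific binding.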

In order of rising “PBM E-score” value:
1. CGGGCGAC  -0.356
2. GAGGGGCC  -0.337
3. GGGGGTTA  -0.325
4. AGGGATGC  -0.313
5. GAACGACC  -0.312
6. GACCACCC  -0.311
7. CCAGCTGC  -0.301
8. GGCGACCC  -0.301
9. GGGGTTAC  -0.294
10. CTTGGACC  -0.277
11. CCGGTCTC  -0.268
12. GCTCAGCC  -0.261
13. ACCTTCCC  -0.261
14. ATCCCAGA  -0.251
15. CCCATCCC  -0.23
16. AGCACTTG  -0.214
17. CTGTCGGC  -0.209
18. CCACGCGC  -0.202
19. CAGCCCGG  -0.192
20. GGGACCAA  -0.186
21. ACGACATC  -0.18
22. CAGGATCG  -0.178
23. GCCTGGCC  -0.172
24. CCATCCAC  -0.165
25. AGTCATCC  -0.165
26. AAAGAGAG  -0.162
27. GCGTGTAC  -0.161
28. CAAGTGAG  -0.16
29. ACCACCCG  -0.159
30. CCGCCACA  -0.158
31. CCGCAACG  -0.154
32. CCCTGACA  -0.153
33. ATGTACCC  -0.15
34. CTCCACAG  -0.141
35. CGATCCCG  -0.14
36. CGAAACCC  -0.138
37. AGCGTGGC  -0.138
38. GCATCTCC  -0.132
39. CCCATCGG  -0.13
40. ACTGGCGA  -0.129
41. CGCCGTCC  -0.126
42. CAAGAGGG  -0.125
43. AAGCCTTG  -0.12
44. TACGGGAA  -0.118
45. ACACCGAG  -0.114
46. CCTCATGA  -0.108
47. CTCCGCCA  -0.101
48. GACTATGC  -0.0965
49. CGCCAACC  -0.0944
50. CGGAGGTC  -0.0941
51. ACTAGCGC  -0.0932
52. AGGGCTAT  -0.0925
53. ACCTAGTC  -0.0849
54. ATCGCTCC  -0.0844
55. GAGGACAA  -0.0837
56. AACACGTC  -0.082
57. AAACGCAG  -0.0761
58. GCGCGCAA  -0.0747
59. AGCAGAAC  -0.0734
60. CCTATCCA  -0.0722
61. AGTCGTGA  -0.0717
62. CTCCGACA  -0.0704
63. TGCTTCAA  -0.0689
64. GACCATAC  -0.0678
65. CGCGATTA  -0.0677
66. CCTGAAGA  -0.0579
67. AGTTAAGA  -0.056
68. TCCCGTCA  -0.0539
69. CCGGAGCC  -0.0532
70. ACACGCTG  -0.0448
71. ACGAACTG  -0.0447
72. GGTAGAAA  -0.0446
73. AGGCTCTA  -0.0412
74. CACTACCC  -0.0408
75. CCCCGCGA  -0.0387
76. AAGGATTC  -0.0364
77. ACTTCGCT  -0.0354
78. ACTCTTGG  -0.0313
79. TAAAACGA  -0.0302
80. AGGGTATC  -0.0301
81. CCTGCGAA  -0.0293
82. CTGCCGAA  -0.0277
83. CCTTACAA  -0.0273
84. GCGCGTAC  -0.0241
85. ACTTGCCC  -0.0215
86. CACACACA  -0.0215
87. AACATGAG  -0.0169
88. ACGTTGGC  -0.0124
89. CATAAGGA  -0.0123
90. AGCAGGGA  -0.00624
91. ATGGCAAA  -0.0059
92. CAGCAGAA  -0.00146
93. CTATGTGC  0.00263
94. CGTATTGC  0.00525
95. AGCATGCG  0.00619
96. ACGTAAGT  0.0143
97. CTAGCACC  0.022
98. GTACCGGA  0.0229
99. ACAATCCC  0.0235
100. AACTGATC  0.0318
101. GACTGGTA  0.0356
102. AATAGAGT  0.0357
103. GCGTCGAA  0.0364
104. GAGTTTCA  0.0406
105. AGGCACAT  0.042
106. TATGGTGA  0.0433
107. ATAGGGTG  0.0433
108. ACACTCTC  0.0481
109. ATCCGTTG  0.0488
110. CCTGGAAG  0.0497
111. CGCGATGA  0.051
112. GATTTGAC  0.0524
113. AGTAGTAG  0.0568
114. CATAGTTA  0.0586
115. ATAAGCTC  0.0638
116. CTACACGA  0.0651
117. ACTAGAGA  0.066
118. AACGTATG  0.07
119. AATGGAAG  0.0701
120. CGCATGAA  0.0716
121. AGTACTCA  0.0723
122. AAGTTCAG  0.0724
123. CGGGAGAA  0.0735
124. ATGGATGA  0.0759
125. AATGTCTG  0.0795
126. TCACATCA  0.0866
127. CCGGGATA  0.0871
128. AACAACCT  0.0933
129. TCAAGAGA  0.0989
130. TCATGACA  0.101
131. ACCTTGAA  0.102
132. ACAACCAG  0.102
133. ACAAGGAA  0.105
134. CAATTTCG  0.108
135. CGCTGACC  0.111
136. ACTATGAC  0.111
137. AAATTACG  0.111
138. AGCGAAAC  0.119
139. ACTAATCA  0.122
140. CCGTTGTA  0.127
141. CAAGTGTA  0.136
142. AAGTTGGT  0.137
143. ATAGCCCA  0.139
144. ACATTCCA  0.142
145. AATCTATG  0.144
146. CCCAAACA  0.147
147. AGGAGTTA  0.149
148. GTTGGATA  0.154
149. ATACGATA  0.158
150. AATATCGC  0.159
151. AATCGAGG  0.166
152. AGAAGAAC  0.171
153. CAATGTAA  0.173
154. AATGTATC  0.178
155. TACACGAA  0.185
156. CCCGGAAA  0.192
157. AAACATCC  0.192
158. ATTATCAA  0.193
159. TACAACGA  0.194
160. CTAACTAG  0.199
161. TCATATCA  0.203
162. CAAACTAA  0.21
163. AAAACCGA  0.211
164. CAATTTGA  0.22
165. GATTTCGC  0.223
166. CTACTATA  0.229
167. AGATATAT  0.241
168. CGGGAATA  0.246
169. ATTAATCA  0.26
170. ATTTGTCG  0.263
171. AATATACT  0.279
172. CTTTTTCC  0.361
